# Experimental data published in the antibiotic and cytotoxicity screens of Wong et al. (2023).
# This is one part of the list.
# Assays:
# HSkMC = human skeletal muscle cells; experiment: cytotoxicity call (relative viability < 0.9); settings: 10 µM
# HepG2 = experiment: cytotoxicity call (relative viability < 0.9); settings: 10 µM
# S. aureus RN4220 = experiment: growth inhibition call (relative growth <= 0.2); settings: 50 µM
Structure (SMILES),cytotoxicity call (HSkMC),cytotoxicity call (HepG2),growth inhibition call (S. aureus RN4220)
COc1ccc(S(=O)(=O)N(C)C[C@H]2Oc3ccc(NS(=O)(=O)c4ccc(F)cc4)cc3C(=O)N([C@@H](C)CO)C[C@H]2C)cc1,inactive,inactive,inactive
CN(C)C[C@@]12COC[C@H]1CN(C(=O)N(C)C)C2,inactive,inactive,inactive
Cc1[nH]c(=O)[nH]c(=O)c1S(=O)(=O)N1CCN(c2ccccc2)CC1,inactive,inactive,inactive
C[C@H]1CCCCO[C@H](CN(C)S(=O)(=O)c2ccc(F)cc2)[C@@H](C)CN([C@@H](C)CO)C(=O)c2cc(NS(=O)(=O)c3cn(C)cn3)ccc2O1,inactive,inactive,inactive
C[C@H]1CN([C@@H](C)CO)C(=O)Cc2cc(NS(=O)(=O)c3cccs3)ccc2O[C@H]1CN(C)S(=O)(=O)c1cn(C)cn1,inactive,inactive,inactive
C[C@@H]1CN([C@@H](C)CO)C(=O)c2cccc(NC(=O)c3cnccn3)c2O[C@@H]1CN(C)Cc1ccncc1,inactive,inactive,inactive
C[C@@H]1CCCCO[C@@H](CN(C)S(=O)(=O)c2ccc(F)cc2)[C@@H](C)CN([C@H](C)CO)C(=O)c2cc(NS(=O)(=O)c3cn(C)cn3)ccc2O1,inactive,inactive,inactive
C[C@@H]1CN([C@@H](C)CO)S(=O)(=O)c2ccc(C#CC3(O)CCCC3)cc2O[C@@H]1CN(C)C(=O)c1ccncc1,inactive,inactive,inactive
COc1ccc(NC(=O)N(C)C[C@H]2Oc3ccc(NC(=O)Nc4ccc(C(F)(F)F)cc4)cc3C(=O)N([C@H](C)CO)C[C@@H]2C)cc1,inactive,inactive,inactive
Cc1ccc(S(=O)(=O)N(C)C[C@@H]2Oc3ccc(NC(=O)CCCN(C)C)cc3C(=O)N([C@H](C)CO)C[C@@H]2C)cc1,inactive,inactive,inactive
CC(C)NC(=O)N(C)C[C@H]1Oc2c(NC(=O)C3CCOCC3)cccc2C(=O)N([C@@H](C)CO)C[C@@H]1C,inactive,inactive,inactive
COc1ccc(S(=O)(=O)N(C)C[C@@H]2Oc3ncc(-c4ccccc4)cc3C(=O)N([C@H](C)CO)C[C@@H]2C)cc1,inactive,inactive,inactive
Cn1cnc(S(=O)(=O)N[C@@H]2C=C[C@@H](CC(=O)Nc3ccccc3)O[C@@H]2CO)c1,inactive,inactive,inactive
C[C@@H]1CN([C@H](C)CO)C(=O)c2cc(NC(=O)NC3CCCCC3)ccc2O[C@H]1CN(C)Cc1ccc(Cl)c(Cl)c1,inactive,inactive,inactive
C[C@H](CO)N1C[C@H](C)[C@H](CN(C)Cc2ccc(C(F)(F)F)cc2)OCCCC[C@H](C)Oc2ccc(NC(=O)CCC(F)(F)F)cc2C1=O,inactive,inactive,inactive
C[C@@H]1CN([C@H](C)CO)C(=O)c2cc(NC(=O)NC3CCCCC3)ccc2O[C@H]1CN(C)C(=O)Nc1ccc(C(F)(F)F)cc1,inactive,inactive,inactive
C[C@@H]1CCCCO[C@H](CN(C)C(=O)C2CCCCC2)[C@@H](C)CN([C@@H](C)CO)C(=O)c2cc(NS(=O)(=O)c3ccc(F)cc3)ccc2O1,inactive,inactive,inactive
C[C@@H]1CCCCO[C@H](CN(C)C(=O)C2CCCCC2)[C@@H](C)CN([C@H](C)CO)C(=O)c2cc(NC(=O)CCCCCC(=O)Nc3ccccc3N)ccc2O1,inactive,inactive,inactive
C[C@@H]1CN([C@H](C)CO)C(=O)CCCn2cc(nn2)CO[C@H]1CN(C)C(=O)Nc1ccc(N2CCCCC2)cc1,inactive,inactive,inactive
O=C(C[C@@H]1CC[C@@H](NC(=O)Cc2ccccn2)[C@@H](CO)O1)NCCCN1CCOCC1,inactive,inactive,inactive
C[C@@H]1CN([C@@H](C)CO)C(=O)c2cc(NC(=O)CCC(F)(F)F)ccc2O[C@@H](C)CCCCO[C@@H]1CN(C)S(=O)(=O)c1cccs1,inactive,inactive,inactive
CC(C)NC(=O)N(C)C[C@H]1Oc2cc(C#Cc3ccccn3)ccc2S(=O)(=O)N([C@H](C)CO)C[C@H]1C,inactive,inactive,inactive
C[C@@H]1CN([C@H](C)CO)S(=O)(=O)c2ccc(C#Cc3ccncc3)cc2O[C@@H]1CN(C)S(=O)(=O)c1ccccc1,inactive,active,inactive
CN(C)CC(=O)N[C@@H]1CC[C@H](CC(=O)NCCN2CCCCC2)O[C@H]1CO,inactive,inactive,inactive
C[C@@H]1CCCCO[C@@H](CN(C)C(=O)CCC(F)(F)F)[C@@H](C)CN([C@@H](C)CO)C(=O)c2cc(NS(=O)(=O)c3ccc(Cl)cc3)ccc2O1,inactive,inactive,inactive
C[C@@H]1CN([C@@H](C)CO)C(=O)Cc2cc(NC(=O)Nc3cccc4ccccc34)ccc2O[C@H]1CN(C)C(=O)Nc1ccc2c(c1)OCO2,inactive,inactive,inactive
COc1ccc(S(=O)(=O)N(C)C[C@H]2Oc3ccc(NC(=O)CCN4CCOCC4)cc3CC(=O)N([C@@H](C)CO)C[C@@H]2C)cc1,inactive,inactive,inactive
COc1ccc(S(=O)(=O)Nc2ccc3c(c2)C(=O)N([C@@H](C)CO)C[C@H](C)[C@@H](CN(C)Cc2ccccc2)OCCCC[C@@H](C)O3)cc1,inactive,inactive,inactive
